Hit rate of the full screen: of about 360,000 compounds, about 7,500 (2.1%) were called active. This list was built around the results that the source calls inconclusive (neither active nor inactive); the mix of calls is not that of the screen. Calls come from the whole dose curve; as a rule, active = well fitted cell-killing curve with a large enough effect; inconclusive = small, poorly fitted or top-dose-only effect, or effect the other way, or another doubt; inactive = no such curve, though single readings can be large or run the other way. No potency is given beside an inconclusive call; the fits are too rough.
Test: qHTS for induction of synthetic lethality in tumor cells producing 2HG: qHTS for the HT-1080-IDH1KD cell line;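 for activity, negative = toxicity: 0% = DMSO wells and -100% = cell-free medium wells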
Conditions: HT-1080 IDH1 knockdown viability, ATP luminescence, 48 h; activity, negative = toxicity: at 46.1 µM (top of the series) unless noted
Method in brief: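 After a 2 h attachment period, IDH1KD HT-1080 cells took pin-transferred compound for 48 h at 37 °C; ATP-based luminescence after 10 min room-temperature reagent incubation reported viability.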
Potency is the fitted concentration of half-maximal effect; tags give direction and shape of the fitted curve.

Structure (SMILES) | Potency | activity, negative = toxicity
O=S(=O)(N=C1C=CC(=NS(=O)(=O)c2ccccc2)c2ccccc21)c1ccccc1 | inconclusive [cytotoxic, single point] | 
S=C(NCc1ccccc1)NNc1nc2ccccc2[nH]1 | inconclusive [cytotoxic, single point] | 
Cc1ccc(S(=O)(=O)Nc2ccccc2N2CCOCC2)cc1 | active: 18.4 µM | 
CN(C)c1ccc(-c2ccnc3c2CC(C)(C(=O)NCc2cccs2)O3)cc1 (stereo not given) | inconclusive [cytotoxic, partial curve] | 
Cc1ccc(-c2csc3ncnc(N4CCN(C(=O)c5ccccc5)CC4)c23)cc1 | inconclusive [cytotoxic, partial curve] | 
Cc1cc(NC(=O)CSc2nc3ccccc3n2CC(=O)N2CC(C)CC(C)C2)no1 (stereo not given) |  | inconclusive: 31.9%
CC(/C=C1\SC(=O)N(CC(=O)Nc2cccc(O)c2)C1=O)=C\c1ccccc1 | inconclusive [cytotoxic, single point] | 
Fc1cccc(/C=N/NC(=S)Nc2ccccc2Cl)c1 | inconclusive [cytotoxic, single point] | 
O=[N+]([O-])c1cc(S(=O)(=O)N2CCCC2)ccc1SCCO |  | inactive: 1.93%
COc1cccc(-n2nnnc2SCC(=O)NC2CCCCC2)c1 |  | inactive: 6.57%
Cc1ccc2c(c1)C1CN(C)CCC1N2S(=O)(=O)c1ccc(Oc2ccc([N+](=O)[O-])cc2)cc1 (stereo not given) | inconclusive [cytotoxic, single point] | 
c1ccc(-c2ccccc2OCCCCN2CCCCC2)cc1 | inconclusive [cytotoxic, single point] | 
COC(CN(C(=O)CCl)C(C(=O)NC1CCCCC1)c1ccccc1C)OC (stereo not given) | inconclusive [cytotoxic, single point] | 
CC1CCN(CCCn2c(SCC(=O)Nc3ccccc3Cl)nc3ccccc3c2=O)CC1 | inconclusive [cytotoxic, single point] | 
c1ccc2c(c1)oc1c(Nc3ccc4c(c3)OCO4)ncnc12 | inconclusive [cytotoxic, single point] | 
COc1ccc(C(=O)NNC(=O)c2ccccn2)cc1 | active: 18.4 µM | 
CN(C)c1cc[n+](CC(=O)Nc2cc(C(F)(F)F)ccc2Cl)cc1 | inconclusive [cytotoxic, single point] | 
COc1ccc(-c2cccc(-c3cc(=O)oc4cc(OC)c(OC)c(OC)c34)c2)cc1 | inconclusive [cytotoxic, partial curve] | 
Cc1ccc(SCc2nc3ccccc3n2CC(=O)Nc2ccccc2)cc1 | inconclusive [cytotoxic, single point] | 
Clc1ccc(CNc2ncnc3[nH]ncc23)cc1Cl | inconclusive [cytotoxic, full curve, poor fit] | 
CCOC(=O)c1cn2nc(Oc3cccc(C(F)(F)F)c3)ccc2n1 |  | inactive: -6.21%
C=CCN(CC=C)C(=O)C(=O)c1cc(C)n(-c2ccc([N+](=O)[O-])cc2)c1C |  | inactive: -3.15%
COc1ccccc1-c1cnc(C(O)c2cc(C)c(OC)c(C)c2)[nH]1 (stereo not given) | inconclusive [cytotoxic, single point] | 

Structure (SMILES) | Potency | activity, negative = toxicity
CC1(C)CC(=O)C2=C(C1)C(c1cn(-c3ccccc3)nc1-c1ccccc1)C(C#N)=C(N)O2 (stereo not given) | inconclusive [cytotoxic, single point] | 
O=C(NCc1ccccc1)C1CC(=O)N(c2ccc(OCC(=O)N3CCOCC3)cc2)C1 (stereo not given) |  | inactive: 10.1%
O=C(N/N=C/c1ccccn1)c1ccc(NC(=O)c2ccccc2Cl)cc1 | inconclusive [cytotoxic, full curve, poor fit] | 
CC1CC(C)(C)N2C(=O)C3(Nc4ccccc4S3)c3cccc1c32 (stereo not given) | inconclusive [cytotoxic, single point] | 
CC(=O)/C(=N/Nc1cccc(Cl)c1)N1CCOCC1 | inconclusive [cytotoxic, partial curve] | 
CCOC(=O)c1c(NC(=O)C2CC(Cl)=CCC2C(=O)O)sc2c1CC(C)(C)OC2 (stereo not given) |  | inactive: 13.5%
CCOC(=O)c1cnc2nc(C)[nH]n2c1=O |  | inactive: 6.19%
Cc1ccc(C(C(=O)NCC2CCCO2)N(Cc2ccccc2)C(=O)c2ccc(-c3ccccc3)[nH]2)o1 (stereo not given) | inconclusive [cytotoxic, single point] | 
CCc1ccc(N2C(=O)C(Cl)=C(N3CCOCC3)C2=O)cc1 |  | inactive: -4.6%
N#Cc1cc(C(=O)c2ccccc2O)cn(-c2nccs2)c1=O | inconclusive [cytotoxic, single point] | 
CN(C)c1ccc(-n2cccc2/C=C/[N+](=O)[O-])cc1 | active: 6.51 µM | 
O/C(=C\c1nc2ccccc2nc1/C=C(\O)c1ccccc1)c1ccccc1 | inconclusive [cytotoxic, single point] | 
COc1cc(CN2CCC(C(=O)NC(c3ccccc3)c3ccsc3)CC2)cc(OC)c1 (stereo not given) | inconclusive [cytotoxic, single point] | 
CCCCCCNC(=O)CC(c1ccccc1)c1cc(Br)ccc1O (stereo not given) | inconclusive [cytotoxic, single point] | 
CC(=O)Nc1nc(NC(=O)/C=C/c2ccccc2)n(-c2ccccc2)n1 | inconclusive [cytotoxic, partial curve] | 
Cc1nc(N=C(N)N)nc2ccccc12 |  | inconclusive: -28.9% [cytotoxic]
CCC(=O)NC(c1cccs1)c1cc([N+](=O)[O-])c2cccnc2c1O (stereo not given) | active: 13 µM | 
COc1cc(-c2nc3ccccc3s2)ccc1O | inconclusive [cytotoxic, single point] | 
COc1ccc2c(c1)C(=O)[C@H](O)[C@@H](c1ccc(OC)c(Br)c1)O2 | inconclusive [cytotoxic, single point] | 
CSc1nnc(C)c(/C=C/Nc2ccc(F)cc2F)n1 | active: 16.4 µM | 
C/C(=N/NC(=O)c1ccc(C(C)(C)C)cc1)c1ccccn1 | active: 5.8 µM | 
CCCN1C(=O)C(=O)c2cc(Cl)ccc21 | active: 14.6 µM | 

Reference: PubChem BioAssay AID686971 (National Center for Advancing Translational Sciences (NCATS), 2013)
